In all, about 45,000 compounds went through this assay and about 200 (0.44%) were called active. Roughly 7% stayed inconclusive and do not appear here. Calls follow the shape of the dose curve; as a rule, active = well fitted activation curve with a large enough effect; inconclusive = small, poorly fitted or top-dose-only effect; inactive = no such curve, though single readings can be large or run the other way. Some of the results follow.
assay: qHTS of TDP-43 Inhibitors: NCGC Sytravon Library Screen; settings: yeast TDP-43 toxicity rescue, BacTiter-Glo growth, 24 h; series mostly up to 46.1 µM; growth rescue (activation): at the top concentration; also: 0% is about no effect; nearly all actives have a fitted effect of over 55% in size
Summary of the method: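 TDP-43-expressing yeast, pregrown in raffinose, seeded at OD600 0.02 in galactose medium with compound for 24 hr at 30 deg C. Growth read by BacTiter-Glo luminescence, so rescue of toxicity appears as activation.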

| SMILES | growth rescue (activation) |
| --- | --- |
| COc1ccc(-n2nc([N+](=O)[O-])c(=NC3CCN(Cc4ccccc4)CC3)n2O)cc1 | inactive: 9.92% |
| COc1cc(C)c(C(C)C)cc1S(=O)(=O)NC1CC(C)(C)NC(C)(C)C1 | inactive: 1.95% |
| COc1ccc(OC)c(S(=O)(=O)N2CCC(C(=O)NCc3ccccn3)CC2)c1 | inactive: 6.08% |
| COc1ccc(NC(=O)C2(C)Cc3c(-c4ccccc4)ccnc3O2)cc1OC (configuration not stated) | inactive: 7.75% |
| COCCNc1nc(Oc2ccc(NC(C)=O)cc2)c2sc(-c3ccccc3)cc2n1 | inactive: 24.9% |
| Cc1ccc(NC(=O)COC(=O)/C=C/c2cccc(Cl)c2)cc1S(=O)(=O)N1CCOCC1 | inactive: -33.4% |
| Cc1cc(NC(=O)COC(=O)C2CC(=O)N(c3ccccc3Cl)C2)no1 (configuration not stated) | inactive: -17.7% |
| COc1cccc(C(=O)N(Cc2sccc2C)C2CCS(=O)(=O)C2)c1 (configuration not stated) | inactive: 15.8% |
| O=C(Cc1ccc(F)cc1)NCC1CCCO1 (configuration not stated) | inactive: -1.84% |
| O=C(COC(=O)c1cc(S(=O)(=O)N2CCOCC2)ccc1O)Nc1cc(S(=O)(=O)N2CCCC2)ccc1Cl | inactive: -12.4% |
| Cc1cc(C)n(-c2c(F)c(F)c(CN3CCOCC3)c(F)c2F)n1 | inactive: 14.8% |
| CCOc1ccc(S(=O)(=O)N(C)c2ccc(OCC(=O)Nc3nc4ccccc4s3)cc2)cc1 | inactive: 1.24% |
| COc1cccc(NC(=O)N[C@@H](Cc2ccccc2)C(=O)O)c1 | inactive: -18.5% |
| C/C(=N/NC(=O)Cc1cccs1)c1ccco1 | inactive: 17.8% |
| c1ccc(N2CCN(Cc3nc4ccccc4[nH]3)CC2)nc1 | inactive: 12.6% |
| CN(CCOc1ccccc1)CC(O)COCc1ccccc1F (configuration not stated) | inactive: -4.32% |
| Cc1c(Cl)cccc1NC(=S)NCc1cccn1C | inactive: 24.2% |
| COc1nc(OCC#N)nc(N(C)C)n1 | inactive: 2.41% |
| NS(=O)(=O)c1cccc(NC(=O)CN2C(=O)C(=O)N(Cc3ccccc3)C2=O)c1 | inactive: -5.7% |
| O=C(COc1ccc(F)c(Cl)c1)Nc1ccc(N2CCOCC2)cc1 | inactive: 23.3% |
| O=C(CCc1ccccc1)NC1C2CC3CC(C2)CC1C3 (configuration not stated) | inactive: 17.9% |
| Cc1noc(C)c1CSCC(=O)OCc1nnc(-c2ccc([N+](=O)[O-])cc2)o1 | inactive: 24.6% |

| SMILES | growth rescue (activation) |
| --- | --- |
| COc1cc2c(cc1OC)CN(C(=O)COc1ccccc1[N+](=O)[O-])CC2 | inactive: 24.9% |
| O=C(Nc1ccccc1)Nc1nnc(/C=C/c2ccccc2Cl)s1 | inactive: 23.5% |
| CCOC(=O)C1(CC2CC2)CCN(C(=O)c2cc(C)nc3ccc(CC)cc23)CC1 | inactive: 6.95% |
| O=C1Nc2cc3c(cc2Sc2ccccc21)OCCO3 | inactive: -8% |
| O=C(Nc1ccc(N2CCOCC2)cc1)c1cc(-n2cnnc2)ccc1Cl | inactive: 7% |
| COc1ccc(C(=O)N[C@H](C(=O)Nc2sccc2C(N)=O)C(C)C)cc1 | inactive: -15.4% |
| CCOc1ccc(NC(=O)C2Cc3ccccc3CN2S(=O)(=O)CC)cc1 (configuration not stated) | inactive: 11.7% |
| COc1ccc(C(C(N)=O)c2ncc(C(F)(F)F)cc2Cl)cc1OC (configuration not stated) | inactive: 3.81% |
| CCC(=O)Nc1ccc(NC(=S)NC(=O)Cc2ccccc2)cc1 | inactive: -5% |
| O=C1CCC(C(=O)N2CCC(O)(c3ccccc3)CC2)CN1CCc1ccccc1 (configuration not stated) | inactive: 19.3% |
| O=C1C2CC=CCC2C(=O)N1c1ccc(N2CCN(c3ccccn3)CC2)c([N+](=O)[O-])c1 (configuration not stated) | inactive: -12.2% |
| Cc1ccc(N=C/C(C(=O)C(F)(F)F)=C(\O)c2ccco2)cc1Cl | inactive: -3.77% |
| CS(=O)(=O)Nc1cccc(S(=O)(=O)N2CCN(C(=O)c3ccccc3)CC2)c1 | inactive: -5.39% |
| CCOC(=O)c1c(C)[nH]c(C(=O)CN2C(=O)NC(C)(C)C2=O)c1C | inactive: 30.4% |
| NC(=O)c1nsc(C(=O)N(Cc2ccco2)C(C(=O)NCC2CCCO2)c2ccc(F)cc2)c1N (configuration not stated) | inactive: -10.8% |
| O=C(N/N=C/c1ccc[nH]1)c1ccc(O)cc1 | inactive: 3.95% |
| COc1cc(NC(=O)c2ccc(CNc3c(N4CCCC4)c(=O)c3=O)cc2)cc(OC)c1OC | inactive: 28.4% |
| O=C(CN(C(=O)CCC(=O)Nc1ccccn1)c1ccc(F)cc1)NCc1ccco1 | inactive: 5.72% |
| COc1ccccc1CNC(=O)COc1ccc(S(=O)(=O)N2CCOCC2)cc1C | inactive: -2.47% |
| CC1=NNC(=O)C1CC(=O)N/N=C(\C)c1cccs1 (configuration not stated) | inactive: 3.74% |
| O=C(COC(=O)CNC(=O)c1ccccc1F)NCC(F)(F)F | inactive: -2.15% |
| CCc1nc2ccc(C(=O)NCCc3ccccn3)cn2c1N(C)CCC(C)C | inactive: -9.78% |

| SMILES | growth rescue (activation) |
| --- | --- |
| CCCCn1c(=O)c(CCC(=O)OCC(=O)Nc2ccc(F)c(Cl)c2)nc2ccccc21 | inactive: 5.02% |
| CCCOc1ccc(N2C(=O)CC(N(Cc3ccco3)C(=O)CC)C2=O)cc1 (configuration not stated) | inactive: 3.96% |
| Cc1ccc(NC(=O)CCN2C(=O)c3cccc4cccc(c34)C2=O)cc1 | inactive: 5.8% |
| O=[N+]([O-])c1cc(/C=N/N2CCN(Cc3ccccc3)CC2)ccc1Cl | inactive: -5.42% |
| Cc1ccc(/C=C/C(=O)N2CCN(S(=O)(=O)c3c(C)c(C)cc(C)c3C)CC2)o1 | inactive: -18.5% |
| COc1ccc(Cl)cc1-n1nnc(-c2nc(-c3ccc4c(c3)OCO4)no2)c1C | inactive: 13.7% |
| COc1ccc([N+](=O)[O-])cc1NC(=O)c1cncc(Br)c1 | inactive: 17.2% |
| COc1cc(C(C(=O)NCc2ccccc2)N(C(=O)c2snc(C(N)=O)c2N)C2CCCC2)cc(OC)c1OC (configuration not stated) | inactive: -5.67% |
| Cc1ccccc1NN=Nc1nc2c([nH]1)c(=O)n(C)c(=O)n2C | inactive: -21.3% |
| O=C(O)c1nc(-c2ccccc2)n(-c2ccccc2)n1 | inactive: 8.03% |
| Cc1ccsc1/C=N\NC(=O)c1n[nH]c2c1CCC2 | inactive: -19.5% |
| CC1Cc2ccccc2N1C(=O)COC(=O)Cn1nnc(-c2ccccc2)n1 (configuration not stated) | inactive: 31% |
| Cc1c(CC(=O)O)c(=O)oc2cc(OCc3ccc(F)cc3F)ccc12 | inactive: 11.1% |
| COc1ccc(C/C(C)=N/NC(=O)c2ccc(C)cc2C)cc1 | inactive: 10.3% |
| CCOC(=O)N1CCN(C(=O)C2CCC(=O)N(CCCc3ccccc3)C2)CC1 (configuration not stated) | inactive: 17.6% |
| COc1cc(/C=N/NC(=O)CNC(=O)/C=C/c2ccco2)cc(OC)c1OC | inactive: -13.1% |
| O=C(CN1C(=O)/C(=C/c2ccccc2)SC1=S)Nc1ncc(Cc2ccccc2)s1 | inactive: 29.1% |
| Cc1ccc(C(=O)Nc2cccnc2)cc1S(=O)(=O)N1CCCCCC1 | inactive: 12.6% |
| CCOc1ccc(-n2c(SCC(=O)Nc3cc(OC)c([N+](=O)[O-])cc3C)nc3ccccc32)cc1 | inactive: 5.73% |
| O=C(CCc1ccc(S(=O)(=O)N2CCOCC2)cc1)NN=C1CCCCCCC1 | inactive: 9.99% |
| C=CCOc1ccc(/C=N/NC(C)=O)cc1OCC | inactive: 25.3% |
| COc1cccc(OCCCn2cc(/C=C3/C(=N)N4C=C(C)SC4=NC3=O)c3ccccc32)c1 | inactive: 8.1% |

| SMILES | growth rescue (activation) |
| --- | --- |
| CCN(CC)CCNC(=O)/C(=N\O)c1ccccn1 | inactive: -4.91% |
| CCNC(=O)NC(=O)C(C)OC(=O)c1cccnc1SC (configuration not stated) | inactive: 11% |
| O=C(Nc1ccc(NC(=O)c2ccc(Cl)cc2Cl)cc1)c1cccs1 | inactive: 9.32% |
| CCCN1C(=O)C(Cc2nc3ccccc3c(=O)n2-c2ccccc2)c2ccccc21 (configuration not stated) | inactive: 9.99% |
| CC(=O)Nc1ccc(S(=O)(=O)Nc2ccc3c(c2)CCC3)cc1 | inactive: 0.269% |
| Nc1c(Cl)ncnc1NCc1cccnc1 | inactive: -9.22% |
| O=C(N/C(=C/c1ccc([N+](=O)[O-])cc1)C(=O)N1CCCC1)c1ccccc1 | inactive: 5.97% |
| Cc1c(C(=O)N2CCCC2(C)C(=O)NCC(C)C)oc2ccccc12 (configuration not stated) | inactive: 11.2% |
| COc1cccc(OCC(Cn2c(C)nc3ccccc32)OC(C)=O)c1 (configuration not stated) | inactive: -5.33% |
| O=C(Nc1cccc(C(F)(F)F)c1)c1ccc2sc([C@@H]3O[C@H](CO)[C@H](O)[C@H](O)[C@H]3O)nc2c1 | inactive: 5.51% |
| O=C(Cc1ccc([N+](=O)[O-])cc1)Nc1ccc2c(c1)OCO2 | inactive: 13.7% |
| Cc1cc(C)c2cccc(N)c2n1 | inactive: 1.64% |
| C=C(c1ccccc1)c1ccc(N(C)C)cc1 | inactive: -6.68% |
| COc1ccccc1N1CCN(C2CC(=O)N(C)C2=O)CC1 (configuration not stated) | inactive: -7.26% |
| O=c1[nH]c(C2CCCN(S(=O)(=O)c3ccccc3F)C2)nc2c1nnn2Cc1ccccc1Cl (configuration not stated) | inactive: 3.43% |
| CCC1(C)Cc2[nH]c(=O)c(C#N)cc2CO1 (configuration not stated) | inactive: -13.5% |
| NS(=O)(=O)c1cccc(-n2cnnn2)c1 | inactive: 17.1% |
| N#C/C(=C\c1cccs1)c1nc2ccccc2[nH]1 | inactive: -36.7% |
| Cc1onc(-c2ccccc2)c1C(=O)Nc1nnc(C(C)(C)C)s1 | inactive: 17.7% |
| CN1CCCC1(C)C(=O)Nc1ccc(-n2cccc2)cc1 (configuration not stated) | inactive: 5.42% |
| NS(=O)(=O)c1ccc(CCNC(=O)CSc2ccc(Cl)cc2)cc1 | inactive: 0.49% |
| CCN=c1scc(-c2cccs2)n1/N=C/c1cc(OC)ccc1O | inactive: -15.8% |

| SMILES | growth rescue (activation) |
| --- | --- |
| O=C1N/C(=N/N=C/c2ccc(O)cc2)SC1Cc1ccccc1 (configuration not stated) | inactive: -5.42% |
| CCn1c(SCc2cccc(C(=O)O)c2)nnc1-c1ccccc1 | inactive: 2.53% |
| CC(=O)c1ccc(NC(=O)CSc2nc(C)cc(C)c2C(N)=O)cc1 | inactive: -4.61% |
| COc1ccccc1CNCc1cc(OC)c(OC)c(OC)c1 | inactive: -3.03% |
| COc1cc(CNCCCCO)ccc1OCc1ccccc1F | inactive: 6.98% |
| O=C(Nc1ccc(CN2CCCCC2)cc1)c1c(F)c(F)c(F)c(F)c1F | inactive: 0.039% |
| COc1ccc(NC(=O)CN(C)C2=NS(=O)(=O)c3ccccc32)cc1Cl | inactive: -4.03% |
| O=C(NCc1ccncc1)C(=O)Nc1ccc2c(c1)OCO2 | inactive: 4.61% |
| COc1ccccc1C(=O)NC(=S)NNC(=O)c1sc2ccccc2c1Cl | inactive: 29.8% |
| CCN(C(=O)CSc1nnc(Nc2ccc(OC)cc2)s1)C1CCS(=O)(=O)C1 (configuration not stated) | inactive: 3.59% |
| CC(=O)Nc1ccc(/C=N/NS(=O)(=O)c2cc(C)ccc2C)cc1 | inactive: 9.38% |
| COc1ccccc1CNC(=O)CN1C(=O)NC(C)(c2ccc(C(C)(C)C)cc2)C1=O (configuration not stated) | inactive: -14.7% |
| O=C(C1CC1)N1CCCC(c2ccc(Cl)cc2)=N1 | inactive: 17.2% |
| C=CCOc1ccc(CN(C)CC(O)COc2cccc3ccccc23)cc1 (configuration not stated) | inactive: -35.8% |
| CN(CCC#N)Cc1cc(=O)oc2ccc3ccccc3c12 | inactive: 2.77% |
| O=C(NC1CCN(S(=O)(=O)c2ccc(F)cc2)CC1)c1ccco1 | inactive: -2.41% |
| CCOC(=O)C1=C(CNCc2ccccc2Cl)NC(=O)NC1c1ccc2c(c1)OCO2 (configuration not stated) | inactive: 7.55% |
| CC(C)(C)C(=O)Nc1ccc(-c2cn3cccnc3n2)cc1 | inactive: 6.29% |
| Oc1cccc2c(NC(=S)Nc3ccc(OC(F)F)cc3)cccc12 | inactive: 5.03% |
